Measured values published in the antibiotic and cytotoxicity screens of Wong et al. (2023).
The list shows a part of the results.

system: HepG2; assay: cytotoxicity call (relative viability < 0.9); conditions: 10 µM

SMILES | cytotoxicity call
CCNC(=O)C[C@@H]1C=C[C@H](NC(=O)C2CCOCC2)[C@H](CO)O1 | inactive
COc1ccccc1NC(=O)N(C)C[C@H]1Oc2ncc(Br)cc2C(=O)N([C@H](C)CO)C[C@@H]1C | inactive
C[C@@H]1CN([C@@H](C)CO)C(=O)c2cc(NS(=O)(=O)c3cn(C)cn3)ccc2O[C@@H]1CN(C)Cc1ccncc1 | inactive
CC(C)Oc1ccc2c(=O)c(-c3ccccc3)coc2c1 | inactive
NC(=O)N1CCC(CC(=O)N2CCC([C@H]3c4ncc(Br)cc4CCc4cc(Cl)cc(Br)c43)CC2)CC1 | inactive
CCNc1nc(SCC(N)=O)nc(N2CCOCC2)n1 | inactive
CN1CCN(C(=O)C[C@H]2CC[C@@H]3[C@H](COc4ccc(NC(=O)C5CCCCC5)cc4C(=O)N3C)O2)CC1 | inactive
O=C(C[C@H]1CC[C@@H]2[C@H](COC[C@H](O)CN2S(=O)(=O)c2cccc(Cl)c2)O1)N1CCOCC1 | inactive
C[C@@H]1CN([C@H](C)CO)C(=O)c2cc(NC(=O)Cn3cnnn3)ccc2O[C@@H]1CN(C)Cc1ccc(C(F)(F)F)cc1 | inactive
C[C@@H]1CN([C@@H](C)CO)C(=O)c2ccccc2-c2ccccc2CO[C@H]1CN(C)C(=O)N[C@H](C)c1ccccc1 | inactive
COc1ccc(F)c(C(=O)N2CCN(CCO)[C@@H]3CS(=O)(=O)C[C@@H]32)c1F | inactive
C[C@@H]1CN([C@H](C)CO)C(=O)c2cc(NC(=O)Cc3cn(C)c4ccccc34)ccc2O[C@@H]1CN(C)Cc1ccc(Oc2ccccc2)cc1 | inactive
C[C@H]1CN([C@@H](C)CO)C(=O)Cc2cc(NC(=O)Cn3cnnn3)ccc2O[C@@H]1CN(C)S(=O)(=O)c1ccc(Cl)cc1 | inactive
Cc1ccc(S(=O)(=O)N(C)C[C@H]2Oc3ncc(C#CCC(C)C)cc3C(=O)N([C@@H](C)CO)C[C@H]2C)cc1 | active
C[C@@H]1CN([C@H](C)CO)C(=O)CCCn2cc(nn2)CO[C@H]1CN(C)S(=O)(=O)c1cccc(C#N)c1 | inactive
COc1ccc(NC(=O)N(C)C[C@H]2Oc3ccc(NS(C)(=O)=O)cc3CC(=O)N([C@H](C)CO)C[C@@H]2C)cc1 | inactive
C[C@@H]1CN([C@@H](C)CO)C(=O)c2cc(NC(=O)CCCN(C)C)ccc2O[C@@H](C)CCCCO[C@@H]1CN(C)Cc1ccc(C(F)(F)F)cc1 | inactive
C[C@@H]1CN([C@@H](C)CO)C(=O)Cc2cc(NC(=O)Cn3cnnn3)ccc2O[C@@H]1CN(C)C(=O)Nc1ccc(C(F)(F)F)cc1 | inactive
C[C@@H]1CN([C@@H](C)CO)C(=O)Cc2cc(N(C)C)ccc2O[C@H]1CN(C)S(=O)(=O)c1cn(C)cn1 | inactive
CCCCC/C=C\C/C=C\C/C=C\C/C=C\CCCC(=O)O | inactive
Cc1ccc(S(=O)(=O)Nc2ccc3c(c2)C(=O)N([C@H](C)CO)C[C@@H](C)[C@@H](CN(C)C(=O)Nc2ccccc2)OCCCC[C@@H](C)O3)cc1 | inactive
Cc1ccc(S(=O)(=O)Nc2ccc3c(c2)CC(=O)N([C@@H](C)CO)C[C@@H](C)[C@@H](CN(C)S(=O)(=O)c2ccccc2)O3)cc1 | inactive
Cc1cc(C(=O)O)nn1C | inactive
C[C@H]1CN([C@@H](C)CO)C(=O)c2cc(NC(=O)Cn3cnnn3)ccc2O[C@@H]1CN(C)S(=O)(=O)c1cccs1 | inactive
C[C@@H]1CCCCO[C@H](CN(C)Cc2ccc(C(=O)O)cc2)[C@H](C)CN([C@H](C)CO)C(=O)c2cc(NC(=O)NC3CCCCC3)ccc2O1 | inactive
CCN1CCCC1CNC(=O)c1cc(S(N)(=O)=O)ccc1OC (centres undefined) | inactive
C[C@@H]1CCCCO[C@H](CN(C)CC2CC2)[C@H](C)CN([C@@H](C)CO)C(=O)c2cc(NC(=O)Nc3cccc4ccccc34)ccc2O1 | inactive
C[C@H](CO)N1C[C@H](C)[C@@H](CN(C)Cc2ccncc2)Oc2ccc(NC(=O)Nc3cccc4ccccc34)cc2C1=O | inactive
C[C@H](CO)N1C[C@H](C)[C@H](CN(C)C(=O)Nc2ccccc2)OCCCC[C@H](C)Oc2ccc(NC(=O)c3ccccc3)cc2C1=O | inactive

system: S. aureus RN4220; assay: growth inhibition call (relative growth <= 0.2); conditions: 50 µM

SMILES | growth inhibition call
C[C@@H]1CN([C@@H](C)CO)C(=O)Cc2cc(NC(=O)NC3CCCCC3)ccc2O[C@H]1CN(C)C(=O)Nc1ccc(C(F)(F)F)cc1 | inactive
COCC(=O)Nc1ccc2c(c1)C(=O)N(C)[C@H]1CC[C@H](CC(=O)N3CCc4ccccc4C3)O[C@@H]1CO2 | inactive
C[C@H]1CCCCO[C@@H](CN(C)Cc2ccccc2)[C@@H](C)CN([C@@H](C)CO)C(=O)c2cc(NC(=O)CCC(F)(F)F)ccc2O1 | inactive
C[C@H]1CCCCO[C@@H](CN(C)C(=O)Nc2ccccc2)[C@@H](C)CN([C@@H](C)CO)C(=O)c2cc(NC(=O)Nc3ccc(F)cc3)ccc2O1 | inactive
Cc1ccc(S(=O)(=O)Nc2ccc3c(c2)C(=O)N([C@@H](C)CO)C[C@H](C)[C@@H](CN(C)S(=O)(=O)c2cccs2)O3)cc1 | inactive
